Cell count data for six compounds are collected here from the supplement of paper PMC4604168 (melanoma cell lines).

Molecules are shown by their SMILES. This is one part of the list. Single values are uncertain, as repeats are few or missing.
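Note: cell number obtained by counting DAPI-stained nuclei in high-throughput microscope images with image analysis software, screen run in 1,536-well plates.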

This experiment relates to UACC257. The experiment in a line: cell count relative to DMSO control; melanoma cells; higher = more viable cells. The following applies: library dose: low library concentration; 72 h.
Consider `O=C1NC(=O)/C(=C/c2ccc(-c3ccc(F)cc3O)o2)S1` + O=C(Oc1ccc([N+](=O)[O-])cc1)N1CCC(C(O)(c2ccc3c(c2)OCO3)c2ccc3c(c2)OCO3)CC1 [JZL184] (first compound 1 µM, partner dose 1 µM), for which the cell count turned out to be 90.4%.
Under `CN1CCN(c2ccc3nc(-c4c(N)c5c(F)cccc5[nH]c4=O)[nH]c3c2)CC1` [Dovitinib] + C/C(O)=C(\C#N)C(=O)Nc1cc(Br)ccc1Br [LFM-A13] (first compound 0.1 µM, partner dose 2 µM) stands 97.6%; under `O=C(O)c1ccc2c(c1)nc(Nc1cccc(Cl)c1)c1ccncc12` + Cc1cc(SCc2sc(-c3ccc(C(F)(F)F)c(F)c3)nc2C)ccc1OCC(=O)O [GW0742] (first compound 0.4 µM, partner dose 2 µM), 93.3%.
In turn, `CN1CCN(c2ccc3nc(-c4c(N)c5c(F)cccc5[nH]c4=O)[nH]c3c2)CC1` [Dovitinib] + O=C(Oc1ccc([N+](=O)[O-])cc1)N1CCC(C(O)(c2ccc3c(c2)OCO3)c2ccc3c(c2)OCO3)CC1 [JZL184] (first compound 0.1 µM, partner dose 1 µM) yielded a cell count of 89.2%.
`Clc1ccc(Nc2nnc(Cc3ccncc3)c3ccccc23)cc1` [vatalanib] + C/C(O)=C(\C#N)C(=O)Nc1cc(Br)ccc1Br [LFM-A13] (first compound 2 µM, partner dose 2 µM) showed a cell count of 88.1%.
The figure for `Cc1cc([N+](=O)[O-])ccc1NS(=O)(=O)c1cc(Cl)ccc1Cl` + O=C(Oc1ccc([N+](=O)[O-])cc1)N1CCC(C(O)(c2ccc3c(c2)OCO3)c2ccc3c(c2)OCO3)CC1 [JZL184] (first compound 1 µM, partner dose 1 µM) is 72.2%.
